Experimental data from US8933202B2, “AXL antibodies” (U3 Pharma GmbH, priority 2007, dated 2015).

Test system: Akt-Kinase
Test: Akt-Kinase (Ser473) phosphorylation ELISA
Assay type: cell-based
Details: 400 ng/ml Gas6; for ligand-mediated Akt-Kinase activation, rat versus chimeric antibody: 50 ng/ml to 1 μg/ml (11B7, ch11B7) or to 10 μg/ml (11D5, ch11D5), NIH3T3-AXL cl.7
Protocol: Furthermore, ELISA experiments were performed in order to investigate whether the rat anti-AXL antibodies of the invention are able to block ligand Gas6-mediated activation of Akt-Kinase. Gas6-mediated Akt-Kinase activation was detected by increased protein (Ser473) phosphorylation. In brief, on day 1. 2×10^4 cells per well were seeded in flat-bottom 96 well plates. The next day, normal growth medium was replaced by serum-reduced (DMEM, 0.5% FCS for NIH3T3-AXL cl.7 fibroblasts) or serum-free (for cancer cell lines) medium to starve cells for 36 h. […] Medium was flicked out and cells were fixed with 4% formaldehyde in PBS (pH 7.5) for 30 min at room temperature. Formaldehyde solution was removed and cells were washed twice with wash buffer (PBS, 0.1% Tween 20). Cells were quenched with 1% H2O2, 0.1% NaN3 in wash buffer and incubated for 20 min at room temperature. Afterwards, the quenching solution was removed, and cells were washed twice with wash buffer and blocked with PBS, 0.5% BSA for 4 h at 4° C. Anti-phospho-Akt (Ser473) primary antibody (polyclonal rabbit; Cell Signaling #9271) diluted 1:500 in PBS, 0.5% BSA, 5 mM EDTA was added over night at 4° C. On day 4, the antibody solution was removed and the plate was washed 3× with wash buffer. HRP-conjugated anti-rabbit secondary antibody (Dianova #111-036-045) diluted 1:2,500 in PBS, 0.5% BSA was then added to each well and incubated for 1.5 h at room temperature. The plate was washed 3× with wash buffer and twice with PBS for 5 min each. Tetramethylbenzidine (TMB, Calbiochem) was added and monitored at 620 nm.
In order to investigate whether the rat anti-AXL antibodies of the invention and the corresponding chimeric anti-AXL antibodies of the invention were able to block ligand Gas6-mediated activation of the Akt-Kinase in NIH3T3-AXL cl.7 fibroblasts to similar extent, ELISA experiments were performed. Antibody-mediated Akt-Kinase inhibition was detected by decreased protein (Ser473) phosphorylation. In brief, on day 1. […] Tetramethylbenzidine (TMB, Calbiochem) was added and monitored at 620 nm.

Molecule | ligand-mediated Akt-Kinase activation, rat versus chimeric antibody | ligand-mediated Akt-Kinase activation (phosphorylation) (10 μg/ml antibody, NIH3T3-AXL cl.7 fibroblasts and CaLa-1 lung cancer cells)
ch11B7: chimeric anti-AXL antibody, derivative of rat 11B7 (antibody) heavy: EVQLQESGPGLVKPSQSLSLTCSVTGYSITSNYWGWIRKFPGDKMEWMGYITYSGSTSYNPSLKSRISITRDTSKNQFFLQLNSVTSEDTATYYCAITTFYYWGQGVMVTVSS[left out - human IgG1 constant region] light: DIQMTQAPSSLPASLGDRVTITCRASQDIGNYLRWFQQKPGKSPRLMISGATNLAAGVPSRFSGSRSGSDYSLTISSLESEDMADYYCLQSKESPWTFGGGTKLELKRTVAAPSVFIFPPSDEQLKSGTASVVCLLNNFYPREAKVQWKVDNALQSGNSQESVTEQDSKDSTYSLSSTLTLSKADYEKHKVYACEVTHQGLSSPVTKSFNRGEC | able to inhibit ligand-mediated Akt-Kinase activation to similar extent | –
11D5: antagonistic rat anti-AXL monoclonal antibody, rat IgG2a (antibody, 11D5 HC gamma1; 11D5 LC kappa, antagonistic rat anti-AXL monoclonal antibody, rat IgG2a) heavy: EVQLQESGPGLVKPSQSLSLTCSVTGYSITSNYWGWIRKFPGNKMEWIGHITNSGNTTYNPSLKSRISISRDTSRNQFFLQLNSVTTEDTATYYCAKGAFDYWGQGVMVTVSS[left out - human IgG1 constant region] light: DIQMTQSPSSMSTSLGDRVTITCRASQDIGNYLSWFQQKVGKSPRRMIYGAIKLAVGVPSRFSGSRSGSDYSLTISSLESEDMAIYYCLQYIQFPLTFGSGTKLELKRTVAAPSVFIFPPSDEQLKSGTASVVCLLNNFYPREAKVQWKVDNALQSGNSQESVTEQDSKDSTYSLSSTLTLSKADYEKHKVYACEVTHQGLSSPVTKSFNRGEC | able to inhibit ligand-mediated Akt-Kinase activation to similar extent | able to block or reduce ligand-mediated Akt-Kinase activation
